Results on 83 compounds are retold here after publication PMC4336329 (PLoS ONE, 2015).

The structures appear in SMILES notation. The campaign covered roughly 310,000 compounds. About 14,000 (4.5%) showed an effect of 50% or more. Effects have a minus sign here. This is one part of the list.
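Further: peak tail current of the secondary pulse compared with the same well before compound.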

The assay deals with human ether-à-go-go-related gene (hERG) potassium channel (human, UniProt Q12809). The experiment in a line: primary screen, population patch clamp on CHO cells stably expressing hERG.
Sequence of human ether-à-go-go-related gene (hERG) potassium channel (Q12809 whole entry, looked up): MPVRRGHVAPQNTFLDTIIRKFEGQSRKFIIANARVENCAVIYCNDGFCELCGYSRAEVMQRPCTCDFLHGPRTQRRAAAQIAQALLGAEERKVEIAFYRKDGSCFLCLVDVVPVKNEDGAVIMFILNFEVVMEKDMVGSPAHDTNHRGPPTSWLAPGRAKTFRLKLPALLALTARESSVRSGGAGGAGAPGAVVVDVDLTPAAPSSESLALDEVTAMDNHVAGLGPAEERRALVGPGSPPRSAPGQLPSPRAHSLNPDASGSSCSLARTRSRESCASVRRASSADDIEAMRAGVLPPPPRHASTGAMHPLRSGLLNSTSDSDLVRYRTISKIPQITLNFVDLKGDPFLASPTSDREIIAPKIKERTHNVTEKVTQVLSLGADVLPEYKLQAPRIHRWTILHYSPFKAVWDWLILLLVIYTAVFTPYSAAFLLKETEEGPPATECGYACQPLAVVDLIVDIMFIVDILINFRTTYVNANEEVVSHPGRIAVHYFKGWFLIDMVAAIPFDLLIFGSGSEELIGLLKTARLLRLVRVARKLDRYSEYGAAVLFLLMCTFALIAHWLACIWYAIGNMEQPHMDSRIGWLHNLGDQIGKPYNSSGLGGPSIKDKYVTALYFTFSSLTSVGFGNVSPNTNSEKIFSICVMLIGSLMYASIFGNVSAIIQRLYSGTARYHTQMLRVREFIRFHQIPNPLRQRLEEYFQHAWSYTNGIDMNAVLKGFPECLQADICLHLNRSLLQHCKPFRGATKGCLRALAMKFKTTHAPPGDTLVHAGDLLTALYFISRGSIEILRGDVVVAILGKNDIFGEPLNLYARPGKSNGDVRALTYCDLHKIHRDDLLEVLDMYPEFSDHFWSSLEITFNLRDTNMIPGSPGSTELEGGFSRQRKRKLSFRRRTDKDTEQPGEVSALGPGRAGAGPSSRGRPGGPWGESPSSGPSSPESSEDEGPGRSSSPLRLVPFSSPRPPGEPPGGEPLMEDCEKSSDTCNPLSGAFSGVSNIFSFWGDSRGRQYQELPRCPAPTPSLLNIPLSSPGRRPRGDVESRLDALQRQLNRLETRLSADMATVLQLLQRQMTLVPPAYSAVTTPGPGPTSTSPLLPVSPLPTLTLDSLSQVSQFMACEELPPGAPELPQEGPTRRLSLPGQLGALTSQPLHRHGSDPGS
Consider `CCc1ccc[n+](-c2[nH]c(=O)sc2/C=N/N=C(\[O-])c2ccncc2)c1`, for which the “hERG current change (%, negative = inhibition) at 10uM” value was found to be 18.8%.
Consider `NC(=O)CSc1ccc(F)cc1`, for which the “hERG current change (%, negative = inhibition) at 10uM” value was 44%.
Regarding `CC1CCN(Cc2c(C(=O)N/N=C/c3cccc(Cl)c3)nnn2-c2nonc2N)CC1`, the “hERG current change (%, negative = inhibition) at 10uM” value is 11.8%.
As for `CCOC(=O)C(C(C)=O)C(c1ccc(OCCC(C)C)cc1)C(C(C)=O)C(=O)OCC` (centres unmarked), the “hERG current change (%, negative = inhibition) at 10uM” value is given as -0.629%.
The same measure for `CCCC(=O)Nc1cc(OCC)c(NC(=O)NC2CCCCC2)cc1OCC`: 0.375%; for `O=C(CNS(=O)(=O)c1ccc(Cl)cc1)NC1CCCCC1`: -11%.
Next, `CCOC(=O)N1CCN(C(=O)CN(c2cccc(OC)c2)S(C)(=O)=O)CC1`: -5.17%; `CC1CCN(S(=O)(=O)c2ccc3ncn(CC(=O)N(C)C4CCCCC4)c(=O)c3c2)CC1`: -22.2%; `O=C1C=C(NCc2ccco2)CC(c2ccc(Cl)cc2)C1` (centres unmarked): -61.5%.
As to `Cc1ccccc1C(=O)Nc1cccc(NC(=O)c2ccc(-c3ccc(Br)cc3)o2)c1`, the “hERG current change (%, negative = inhibition) at 10uM” value is 16.7%.
The same measure for `O=C(CC1(O)C(=O)N(Cc2ccc3c(c2)OCO3)c2ccccc21)c1ccccc1` (centres unmarked): 8.9%.
With `COC(=O)c1ccc(NC2(C#N)C(=O)Nc3ccccc32)cc1` (centres unmarked), the “hERG current change (%, negative = inhibition) at 10uM” value is 21.9%.
The same measure for `Fc1cccc(-n2ncc(-c3nnnn3-c3ccccc3)c2C(F)(F)F)c1`: -16.1%; for `O=C(NNC(=O)c1cccs1)Nc1cccc(Cl)c1`: 1.56%.
The same measure for `Cl.O=C(CN1CCN(C2CCCCC2)CC1)Nc1cccc2ccccc12`: -31.2%.
The same measure for `Br.O=C(CN1CCCCC1)c1ccccc1Cl`: -3.23%; for `CN(C)S(=O)(=O)c1cccc(C(=O)N(Cc2ccc(F)cc2)Cc2ccco2)c1`: -52.3%; for `COc1ccc(C(CNC(=O)c2cccc(NS(=O)(=O)c3ccc(Br)cc3)c2)N(C)C)cc1` (centres unmarked): -61.5%.
In the case of `COc1ccc(NC(=O)C2CCN(S(=O)(=O)c3cccc4nonc34)CC2)c(OC)c1`, the “hERG current change (%, negative = inhibition) at 10uM” value came to 0.758%.
Next, `COc1cc(OC)c(NC(=O)CCc2nc(-c3cccs3)no2)cc1Cl`: 1.63%; `O=C(CSc1nnc(-c2cccs2)n1Cc1ccccc1)NCc1ccc2c(c1)OCO2`: -75.8%; `O=C(CN1C(=O)NC2(CCCC2)C1=O)OCCOc1ccc(Br)cc1`: -17.6%.
For the compound `NC(N)=N/N=C/c1cn(-c2ccccc2)nc1-c1cccs1.O=[N+]([O-])O`, the “hERG current change (%, negative = inhibition) at 10uM” value is -62.1%.
Regarding `NS(=O)(=O)c1ccc(CNC(=S)NC2CCCCC2)cc1`, the “hERG current change (%, negative = inhibition) at 10uM” value stood at 7.06%.
As to `COc1cc(N2N=C(c3ccccc3)CC2c2ccccc2)c(C=O)cc1C=O` (centres unmarked), the “hERG current change (%, negative = inhibition) at 10uM” value is on record as 20.5%.
`Cc1noc(C)c1CN(C(=S)NC(C)C)c1ccccc1`: the “hERG current change (%, negative = inhibition) at 10uM” value came out at 22.4%.
Consider `CNS(=O)(=O)Cc1ccc2[nH]cc(CCN(C)C)c2c1`, for which the “hERG current change (%, negative = inhibition) at 10uM” value is 10.6%.
Regarding `COC(=O)[C@]1(CC(C)C)N[C@H](c2ccc(-c3ccc(F)cc3)c(OC)c2)[C@@H]2C(=O)N(C)C(=O)[C@@H]21.O=C(O)C(F)(F)F`, the “hERG current change (%, negative = inhibition) at 10uM” value is recorded as -43.3%.
`O=C(CN1C(=O)c2ccccc2C1=O)N1CCN(S(=O)(=O)c2ccccc2)CC1`: the “hERG current change (%, negative = inhibition) at 10uM” value was -3.47%.
Turning to `CCc1nc(N2CCN(C(C)=O)CC2)c2c3c(sc2n1)CCCC3`, the “hERG current change (%, negative = inhibition) at 10uM” value is on record as -20.1%.
Regarding `O=C(c1ccco1)N1CCN(S(=O)(=O)N2CCOCC2)CC1`, the “hERG current change (%, negative = inhibition) at 10uM” value is listed as -1.91%.
The same measure for `O=C(Oc1cncc(Cl)c1)c1sccc1Cl`: -1.86%; for `Cc1ccc2c(c1)C(c1ccccc1)N(C(=O)c1ccc(S(=O)(=O)N3CCOCC3)cc1)CC(=O)N2` (centres unmarked): -19.1%.
As for `CCCC(=O)N(C1CC(C)C(C#N)(C#N)C1(C#N)C#N)N(C)C` (centres unmarked), the “hERG current change (%, negative = inhibition) at 10uM” value was 3.69%.
For `Cc1ccc(NC(=O)c2ccc(S(=O)(=O)Nc3c(C)n(C)n(-c4ccccc4)c3=O)cc2)nc1`, the “hERG current change (%, negative = inhibition) at 10uM” value is given as 6.9%.
With `O=C(NN=C1CCC(c2ccccc2)CC1)c1cc2c(s1)CCCC2` (centres unmarked), the “hERG current change (%, negative = inhibition) at 10uM” value is given as -0.679%.
`O=C(COc1ccc2c(C(F)(F)F)cc(=O)oc2c1)Nc1ccc2c(c1)OCCO2`: the “hERG current change (%, negative = inhibition) at 10uM” value is 2.49%.
On to `CC1Cn2c(nnc2-c2cccs2)S1` (centres unmarked), for which the “hERG current change (%, negative = inhibition) at 10uM” value turned out to be 1.27%.
`CCOc1ccccc1C(=O)NCC(=O)OCCOc1cccc(Cl)c1`: the “hERG current change (%, negative = inhibition) at 10uM” value is recorded as -12.1%.
Turning to `C[C@@H](NC(=O)[C@@H]1Cc2ccccc2CN1C(=O)OC(C)(C)C)C(=O)NCc1ccco1`, the “hERG current change (%, negative = inhibition) at 10uM” value is 7.01%.
The same measure for `Cc1cc(C)c(-c2cc(NC(=O)COC(=O)c3ccc(C#N)cc3)n(-c3ccccc3)n2)cc1C`: -12.7%; for `O=C(CN1CCN(c2ccc(O)cc2)CC1)Nc1ccc2c(c1)OCCO2`: 2.24%.
As to `O=C(/C=C\Nc1ccc2c(c1)OCO2)c1cccs1`, the “hERG current change (%, negative = inhibition) at 10uM” value is 17.6%.
Regarding `Cc1noc(C)c1C(=O)OCC(=O)Nc1cccc(S(N)(=O)=O)c1`, the “hERG current change (%, negative = inhibition) at 10uM” value came to 9.31%.
In the case of `COc1cc(OC)cc(-c2nnc(SCC(=O)Nc3cccc(C(=O)O)c3)s2)c1`, the “hERG current change (%, negative = inhibition) at 10uM” value is 5.77%.
For the compound `Clc1ccc(C2[C@H]3CN(CC4CCCCC4)[C@H](c4ccccc4)C34CC2(c2ccccc2)C4)cn1` (some centres unmarked), the “hERG current change (%, negative = inhibition) at 10uM” value was 5.08%.
As for `O=C(CCCCCn1c(=O)[nH]c2ccsc2c1=O)N1CCCCC1`, the “hERG current change (%, negative = inhibition) at 10uM” value is recorded as -23.4%.
Next, `COc1ccc(Cn2c(O)c(C=Nc3ccc(OC)cc3)c3ccccc3c2=O)cc1`: 2.23%; `Cc1cc2cc3c(cc2nc1SCC(=O)N1CCN(C(=O)c2ccco2)CC1)OCO3`: -35.3%.
Consider `COc1ccc(C(=O)N(C)CCCC2CCCC2)cc1OC1CCN(C(C)C)CC1`, for which the “hERG current change (%, negative = inhibition) at 10uM” value is listed as -68.4%.
As to `CCOCCCNC(=S)Nc1ccc(Br)cc1Cl`, the “hERG current change (%, negative = inhibition) at 10uM” value was 2.7%.
In the case of `CC(C)OP(=O)(OC(C)C)C(O)c1cccc([N+](=O)[O-])c1` (centres unmarked), the “hERG current change (%, negative = inhibition) at 10uM” value is 1.7%.
Regarding `COc1ccc(/C=C/C(=O)c2ccc3c(c2)OCO3)cc1OC`, the “hERG current change (%, negative = inhibition) at 10uM” value is given as -0.26%.
As to `N/C(=N\OC(=O)COc1ccc2ccccc2c1)c1ccccn1`, the “hERG current change (%, negative = inhibition) at 10uM” value is reported as -1.39%.
Next, `Cc1ccc(NC(=O)NCc2ccccn2)cc1`: 37.7%; `COc1ccccc1C(=O)N1CCNC(=O)C1CC(=O)Nc1ccc(Cl)cc1` (centres unmarked): 6.46%.
In the case of `CN(C)S(=O)(=O)c1ccc(N2CCCC2)c(C(=O)Nc2ccc(Br)cc2F)c1`, the “hERG current change (%, negative = inhibition) at 10uM” value amounted to 3.03%.
Consider `COc1cccc(NC(=O)Nc2cc(NC(=O)Nc3cccc(OC)c3)c(C)nc2C)c1`, for which the “hERG current change (%, negative = inhibition) at 10uM” value amounted to 13.7%.
As for `CCCN(CC(=O)Nc1ccccc1C)C(=O)C1CCCN(C(=O)c2ccc(Cl)cc2)C1` (centres unmarked), the “hERG current change (%, negative = inhibition) at 10uM” value is listed as -35.1%.
Take `COc1ccc(Cn2nc(-c3ccccc3)c(N3CCCCC3)cc2=O)cc1`: the “hERG current change (%, negative = inhibition) at 10uM” value is given as -37.8%.
For the compound `CN(CC(=O)Nc1cccc(F)c1)C(=O)c1ccc(N2C(=O)c3ccccc3C2=O)cc1`, the “hERG current change (%, negative = inhibition) at 10uM” value was 2.22%.
Regarding `Cc1cccc(C(=O)NC2CC(C)(C)NC(C)(C)C2)c1`, the “hERG current change (%, negative = inhibition) at 10uM” value amounted to 11.4%.
Next, `O=Cc1cn(Cc2cccc(F)c2)c2ccccc12`: 2.72%; `COc1cccc(-n2c(N)c(C#N)c3ccc([N+](=O)[O-])cc3c2=O)c1`: -8.42%; `Cc1ccc(-c2nn3c(C)nnc3c3ccccc23)cc1S(=O)(=O)N(C)CCO`: -30.6%.
On to `O=C(CSCc1ccc(Cl)cc1)Nc1ccc(O)cc1C(=O)O`, for which the “hERG current change (%, negative = inhibition) at 10uM” value was 11.4%.
The same measure for `CC(=O)CCC(=O)OCC(=O)c1ccc(C(F)(F)F)cc1`: 7.95%; for `Cc1[nH]c2ccccc2c1C(=O)COC(=O)c1ccc([N+](=O)[O-])s1`: 5.03%; for `N/C(=N\OC(=O)COc1cc(Cl)c(Cl)cc1Cl)c1ccncc1`: 9.49%.
Take `NC(=O)c1ccccc1NC(=O)NC1CCCCC1`: the “hERG current change (%, negative = inhibition) at 10uM” value is listed as -6.68%.
Consider `CC(=O)N1CCSc2ccc(S(=O)(=O)NCCc3cccc(C)c3)cc21`, for which the “hERG current change (%, negative = inhibition) at 10uM” value is -20.7%.
On to `COc1ccc(OC)c(C2=NS(=O)(=O)N(C)C(C(=O)Nc3ccc(C(C)=O)cc3)=C2)c1`, for which the “hERG current change (%, negative = inhibition) at 10uM” value came out at 5.6%.
`Cc1ccc(S(=O)(=O)Nc2cccc(CP(=O)(c3ccccc3)c3ccccc3)c2)cc1`: the “hERG current change (%, negative = inhibition) at 10uM” value is on record as -8.1%.
Consider `Oc1ccc(-c2nc3ccccn3c2NCc2ccco2)cc1`, for which the “hERG current change (%, negative = inhibition) at 10uM” value is -25.2%.
The same measure for `NC(=O)C1CCN(C(=O)c2ccc(NC3=NC4CS(=O)(=O)CC4S3)cc2)CC1` (centres unmarked): 15.8%; for `CCc1ccc(NC(=O)CCS(=O)(=O)c2ccc(Cl)cc2)cc1`: 6.96%; for `O=C(C1=NN(c2ccccc2)C(=O)CC1)N1CCc2ccccc2C1`: 16.7%.
For `Cc1nc(N2N=C3/C(=C/c4ccc(F)cc4)CCCC3C2c2ccc(F)cc2)sc1C(=O)N(C)C` (centres unmarked), the “hERG current change (%, negative = inhibition) at 10uM” value was -7.27%.
For `O=C(NCCCN1CCCC1=O)c1cccc(NS(=O)(=O)c2ccccc2)c1`, the “hERG current change (%, negative = inhibition) at 10uM” value amounted to 5.2%.
Turning to `COc1ccccc1N(C)S(=O)(=O)c1ccc(C(=O)OCC(=O)NCCC2=CCCCC2)cc1`, the “hERG current change (%, negative = inhibition) at 10uM” value is on record as -4.24%.
With `CCC(C)NC(=O)C(NS(=O)(=O)c1ccc2c(c1)c(=O)n(C)c(=O)n2C)c1ccccc1` (centres unmarked), the “hERG current change (%, negative = inhibition) at 10uM” value is reported as -4.81%.
For `COc1ccc(CNC(=O)C(C)N(Cc2ccccc2OC)C(=O)c2snc(C(N)=O)c2N)cc1` (centres unmarked), the “hERG current change (%, negative = inhibition) at 10uM” value was 8.38%.
With `Brc1ccc(OCCOc2cccc3cccnc23)cc1`, the “hERG current change (%, negative = inhibition) at 10uM” value is 17.4%.
